The text below walks through data of the antibiotic and cytotoxicity screens of Wong et al. (2023).

In assay [1] the test system is HSkMC (human skeletal muscle cells). As to the kind of experiment: cytotoxicity call (relative viability < 0.9). The settings on record: 10 µM.
Assay [2] relates to HepG2. The assay is described as follows: cytotoxicity call (relative viability < 0.9). As to conditions: 10 µM.
Assay [3] concerns S. aureus RN4220. As to the kind of experiment: growth inhibition call (relative growth <= 0.2). As to conditions: 50 µM.

The list shows a part of the results.

As to `C[C@H]1CCCCO[C@@H](CN(C)C(=O)Cc2ccccc2)[C@@H](C)CN([C@@H](C)CO)C(=O)c2cc(NS(=O)(=O)c3cccs3)ccc2O1`, the cytotoxicity call in assay [1] and in assay [2] was “inactive” throughout. In addition, the growth inhibition call in assay [3] was “inactive”.

Regarding `C[C@H](CO)N1C[C@H](C)[C@@H](CN(C)C(=O)C2CCOCC2)Oc2ncc(C#CC3(O)CCCC3)cc2C1=O`, the cytotoxicity call in assay [1] and in assay [2] was “inactive” in each case. In addition, the growth inhibition call in assay [3] is “inactive”.

On to `Cc1ccc(S(=O)(=O)Nc2ccc3c(c2)C(=O)N([C@H](C)CO)C[C@H](C)[C@H](CN(C)C(=O)Nc2ccc(F)cc2)OCCCC[C@H](C)O3)cc1`, for which the cytotoxicity call in assay [1] and in assay [2] was “inactive” each time. Further, the growth inhibition call in assay [3] is “inactive”.

On to `C[C@H]1CN([C@@H](C)CO)C(=O)c2cccc(NS(=O)(=O)c3ccccc3)c2O[C@@H]1CN(C)S(=O)(=O)c1cn(C)cn1`, for which the cytotoxicity call in assay [1] and in assay [2] was “inactive” in each case. Besides, in assay [3], the growth inhibition call is “inactive”.

With `CN1CCN(C(=O)C[C@H]2CC[C@@H]3[C@H](COC[C@@H](O)CN3C(=O)Nc3ccc4c(c3)OCO4)O2)CC1`, the cytotoxicity call in assay [1] and in assay [2] was “inactive” each time. For the same compound, in assay [3], the growth inhibition call was “inactive”.

`O=C(C[C@@H]1CC[C@@H]2[C@H](COC[C@H](O)CN2S(=O)(=O)c2ccccc2F)O1)NCc1ccccc1F`: the cytotoxicity call in assay [1] and in assay [2] was “inactive” in each case. In addition, the growth inhibition call in assay [3] is “inactive”.

In the case of `O=C1C(=Cc2cccs2)CCCC1=Cc1cccs1`, the cytotoxicity call in assay [1] and in assay [2] was “inactive” throughout. The growth inhibition call in assay [3] was “inactive”.

Take `COc1ccc(NC(=O)Nc2ccc3c(c2)C(=O)N([C@@H](C)CO)C[C@H](C)[C@H](CN(C)C(=O)Cc2ccccc2)OCCCC[C@@H](C)O3)cc1`: the cytotoxicity call in assay [1] and in assay [2] was “inactive” throughout. In addition, in assay [3], the growth inhibition call is “inactive”.

With `C=C1CCC(O)CC1=CC=C1CCCC2(C)C1CCC2C(C)CCCC(C)C` (centres undefined), the cytotoxicity call in assay [1] and in assay [2] was “inactive” each time. For the same compound, the growth inhibition call in assay [3] is “inactive”.

As for `CCN(CCCCOC(=O)c1ccc(OC)c(OC)c1)C(C)Cc1ccc(OC)cc1.Cl` (centres undefined), the cytotoxicity call in assay [1] was “inactive”. Also, the cytotoxicity call in assay [2] is “active”. In assay [3], the growth inhibition call was “inactive”.

Turning to `CC(C)CS(=O)(=O)N1C[C@H]2C[C@H](C(=O)N3CCOCC3)[C@@H](C1)O2`, the cytotoxicity call in assay [1] and in assay [2] was “inactive” each time. Besides, the growth inhibition call in assay [3] is “inactive”.

As to `COCC(=O)N(C)C[C@H]1Oc2cc(-c3ccc(C#N)cc3)ccc2S(=O)(=O)N([C@H](C)CO)C[C@@H]1C`, the cytotoxicity call in assay [1] and in assay [2] was “inactive” in each case. Also, the growth inhibition call in assay [3] is “inactive”.

`C[C@@H]1CN([C@H](C)CO)C(=O)c2cc(NC(=O)CCCN(C)C)ccc2O[C@@H]1CN(C)Cc1ccccc1`: the cytotoxicity call in assay [1] and in assay [2] was “inactive” each time. Besides, in assay [3], the growth inhibition call is “inactive”.

Consider `C[C@@H]1CN([C@H](C)CO)C(=O)c2cccc(NC(=O)Nc3cccc4ccccc34)c2O[C@@H]1CN(C)S(=O)(=O)c1cccs1`, for which the cytotoxicity call in assay [1] is “inactive”. Also, the cytotoxicity call in assay [2] was “active”. In addition, the growth inhibition call in assay [3] is “inactive”.

Regarding `COc1ccc(C#N)nc1`, the cytotoxicity call in assay [1] and in assay [2] was “inactive” throughout. Moreover, the growth inhibition call in assay [3] is “inactive”.

Consider `Cc1ccc(S(=O)(=O)NCCOc2nc(N(C)C)nc(N3CCOCC3)n2)cc1`, for which the cytotoxicity call in assay [1] and in assay [2] was “inactive” each time. Moreover, the growth inhibition call in assay [3] is “inactive”.

As for `Cc1noc(C)c1S(=O)(=O)Nc1cccc2c1O[C@H](CN(C)S(=O)(=O)c1cccs1)[C@H](C)CN([C@@H](C)CO)C2=O`, the cytotoxicity call in assay [1] and in assay [2] was “inactive” throughout. In addition, the growth inhibition call in assay [3] was “inactive”.

`Nc1cnn(-c2ccccc2)c(=O)c1N`: the cytotoxicity call in assay [1] and in assay [2] was “inactive” each time. Moreover, in assay [3], the growth inhibition call was “inactive”.

For the compound `O=C(O)CCCCCCCC(O)C(O)CCCCCCO` (centres undefined), the cytotoxicity call in assay [1] and in assay [2] was “inactive” in each case. Further, the growth inhibition call in assay [3] is “inactive”.

On to `CC(C)NC(=O)N(C)C[C@H]1Oc2c(NS(=O)(=O)c3ccc(Cl)cc3)cccc2C(=O)N([C@H](C)CO)C[C@@H]1C`, for which the cytotoxicity call in assay [1] and in assay [2] was “inactive” in each case. In addition, in assay [3], the growth inhibition call was “inactive”.

Turning to `CC(C)c1ccc(/C=C/C(=O)O)cc1`, the cytotoxicity call in assay [1] and in assay [2] was “inactive” throughout. The growth inhibition call in assay [3] was “inactive”.

For `NC(=O)C1CCCN1C(=O)C(Cc1c[nH]cn1)NC(=O)C1CCC(=O)N1` (centres undefined), the cytotoxicity call in assay [1] and in assay [2] was “inactive” each time. In assay [3], the growth inhibition call was “inactive”.

`CCOc1ccc2nc(S(N)(=O)=O)sc2c1`: the cytotoxicity call in assay [1] and in assay [2] was “inactive” each time. For the same compound, in assay [3], the growth inhibition call is “inactive”.

For the compound `C[C@H](CO)N1C[C@H](C)[C@@H](CN(C)S(=O)(=O)c2ccc(-n3cccn3)cc2)OCc2cn(nn2)CCCC1=O`, the cytotoxicity call in assay [1] and in assay [2] was “inactive” each time. Besides, in assay [3], the growth inhibition call is “inactive”.

On to `C[C@@H]1CN([C@@H](C)CO)C(=O)c2cc(NC(=O)Nc3ccc(C(F)(F)F)cc3)ccc2O[C@@H](C)CCCCO[C@H]1CN(C)C(=O)Nc1cccc2ccccc12`, for which the cytotoxicity call in assay [1] and in assay [2] was “inactive” each time. In addition, in assay [3], the growth inhibition call was “inactive”.

`O=C1O[C@@H](c2ccccc2)[C@@H](c2ccccc2)N2[C@@H](c3ccccc3OCCO)[C@]3(C(=O)Nc4ccc(C#CC5=CCCCC5)cc43)[C@@H](C(=O)N3CCCCCCC3)[C@H]12`: the cytotoxicity call in assay [1] is “inactive”. In assay [2], the cytotoxicity call is “active”. Further, in assay [3], the growth inhibition call is “inactive”.

For `COc1ccc(CN(C)C[C@@H]2OCCCC[C@@H](C)Oc3ccc(NC(=O)Nc4ccc(C(F)(F)F)cc4)cc3C(=O)N([C@@H](C)CO)C[C@@H]2C)cc1`, the cytotoxicity call in assay [1] and in assay [2] was “active” in each case. The growth inhibition call in assay [3] is “inactive”.

Turning to `COc1c(O)cccc1O`, the cytotoxicity call in assay [1] and in assay [2] was “inactive” throughout. For the same compound, the growth inhibition call in assay [3] was “inactive”.
